“And” between values parts separate entries of the source, which are not always exact repeats. Identical values can stand only once. Screen size: about 48,000 compounds; about 1,200 (2.5%) were called active. Roughly 2% stayed inconclusive and do not appear here.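 The calls were made as follows: active = activation of at least 60% and not above a set upper limit (about 1 call in 100 departs from these limits); inconclusive = activation of 40% to 60%, or above that upper limit; inactive = activation under 40%.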 The list shows a part of the results.

Chain of UniProt O75388 (O75388 whole entry, looked up): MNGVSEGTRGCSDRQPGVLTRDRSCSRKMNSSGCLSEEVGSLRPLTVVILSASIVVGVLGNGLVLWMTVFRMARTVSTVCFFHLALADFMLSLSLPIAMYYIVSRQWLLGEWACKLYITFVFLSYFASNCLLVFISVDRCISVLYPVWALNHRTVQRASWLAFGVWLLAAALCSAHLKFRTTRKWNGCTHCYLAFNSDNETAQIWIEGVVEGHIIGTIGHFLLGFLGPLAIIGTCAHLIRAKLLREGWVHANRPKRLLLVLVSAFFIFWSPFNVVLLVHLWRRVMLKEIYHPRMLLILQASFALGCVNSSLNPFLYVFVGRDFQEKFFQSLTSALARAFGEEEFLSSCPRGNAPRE

The target of the test is Probable G-protein coupled receptor 32 (Homo sapiens) (UniProt O75388). Description: qHTS for Agonists of Human Resolvin D1 Receptor DRV1. Also: 0% is about no effect. The conditions noted are these: CHO-K1 GPR32 beta-arrestin PathHunter luminescence, 90 min; at 76.9 µM; stronger effect = higher value; zero percent set by DMSO-only wells. A digest of the protocol:
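PathHunter beta-arrestin recruitment in CHO-K1 cells stably expressing ProLink-tagged GPR32. Cells were exposed to compound for 90 min at 37 C, then chemiluminescence was read after 1 h detection at ambient temperature; DMSO served as basal control.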
As to `COc1cc(OC)c(OC)cc1/C=C/c1nc2cc3ccccc3cc2c(=O)n1-c1ccc(Cl)cc1`, the activation was inactive: -12.1%.
As for `CCOc1ccccc1NC(=O)CSc1nc2c(oc3ccccc32)c(=O)n1-c1ccc(C)c(C)c1`, the activation is inactive: -23.7%.
The result for `Cc1ccc(Nc2c(-c3c[nH]c4ccccc34)nc3cc(C)ccn23)cc1` reads inactive: -6.82%.
Regarding `COc1ccc(C(=O)NCC(c2cccnc2)N2CCc3ccccc32)cc1` (stereo unspecified), the activation is inactive: -25.5%.
Consider `CCOC(=O)c1c(N)n(-c2ccc(C)c(Cl)c2)c2nc3ccccc3nc12`, for which the activation is inactive: -7.22%.
`Cc1ccc(Oc2c(C(F)(F)F)oc3c(CN4CCCCC4C)c(O)ccc3c2=O)cc1` (stereo unspecified): the activation is inactive: -24.6%.
The result for `COc1ccc(-c2nn3c(=O)cc(CN4CCN(C(=O)c5ccc(C(C)(C)C)cc5)CC4)nc3s2)cc1` reads inactive: 7.8%; that for `CC(C)OCCCNC(=O)c1ccc2c(c1)N(Cc1c(F)cccc1Cl)C(=O)c1ccccc1S2`, inactive: -31.7%; that for `CCOC(=O)CC(NS(=O)(=O)c1ccc2[nH]c3c(c2c1)CCCC3)c1ccccc1Cl` (stereo unspecified), inactive: 37.1%.
The result for `CC1=C(c2ccc(C)c(C)c2)S(=O)(=O)N(Cc2ccc(C(=O)NCc3cccc(C)c3)cc2)C1=O` reads inactive: -16.7%; that for `O=C(CCC1N=C2c3ccccc3N=C(SCc3ccc(F)cc3)N2C1=O)NCc1cccs1` (stereo unspecified), inactive: -9.75%; that for `Cc1cccc(NC(=O)c2oc3ccccc3c2NC(=O)Cc2coc3c(C)c(C)ccc23)c1`, inactive: -0.207%.
For `CCC(C(=O)Nc1cc(Cl)ccc1OC)n1nc(-c2ccccc2)ccc1=O` (stereo unspecified), the activation was inactive: 0.499%.
The result for `COc1ccc2c(c1OC)C(=O)O[C@@H]2[C@H]1c2c(cc3c(c2OC)OCO3)CCN1C` reads inactive: -7.71% and inactive: -19.6%; that for `COc1cc(C(=O)Nc2ccc3nc(SCc4ccc(C)cc4)sc3c2)cc(OC)c1OC`, inactive: -8.37%.
The result for `CC(C)(C)OC(=O)N1CCC(c2c(C(=O)N3CCN(C(=O)c4ccco4)CC3)cnn2-c2cccc(F)c2)CC1` reads inactive: -11.5%; that for `CCOc1ccc(-n2c(SCC(=O)N3CCOCC3)nc3c([nH]c4ccccc43)c2=O)cc1`, inactive: -8.89%; that for `CC(=O)c1ccc(S(=O)(=O)Nc2cccc(-c3ccc(N4CCCCCC4)nn3)c2)cc1`, inactive: -8.37%.
As to `CCCC(=O)N1CCN(c2nc3c(OC)ccc(C)c3s2)CC1`, the activation is inactive: 2.38%.
The result for `CCN(c1ccccc1)S(=O)(=O)c1nnc(NC(=O)c2cccs2)s1` reads inactive: 49%; that for `Cc1ccc(C)c(Nc2nnc(-n3nc(C)cc3C)c3ccccc23)c1`, inactive: 1.57%.
`O=C(Nc1cccc(F)c1)c1ccc2snnc2c1`: the activation was inactive: -4.25%.
The result for `Cc1ccc(-n2nc(C(=O)N3CCC(C)CC3)c(=O)n(C)c2=O)cc1` reads inactive: -4.43%.
`O=C(NCc1ccc(Cl)cc1)c1cnc(N2CCCCC2)c2ccccc12`: the activation is inactive: -11.9%.
The result for `Cc1cccc(N2CCN(CCNC(=O)C3COc4ccccc4C3)CC2)c1C` (stereo unspecified) reads inactive: -5.76%; that for `O=C(O)c1cc(-n2c(/C=C\c3ccc(F)cc3)nc3ccccc3c2=O)ccc1Cl`, inactive: -10.9%; that for `Cc1ccc(CNC(=O)C(CC(C)C)NS(=O)(=O)c2ccc3c(c2)oc(=O)n3C)cc1` (stereo unspecified), inactive: -6.66%.
`CSc1ccc(CCNC(=O)CCc2c(C)nc3c(c(C)nn3-c3ccccc3)c2C)cc1`: the activation was inactive: 16%.
With `O=C(NC1CC(=O)N(c2cccc(F)c2)C1)c1ccc(Br)o1` (stereo unspecified), the activation was inactive: -0.782%.
Turning to `COc1ccc(CNC(=O)C2CCN(Cc3nc(-c4ccc(Cl)cc4)oc3C)CC2)cc1`, the activation was inactive: 7.36%.
With `Cc1ccc(S(=O)(=O)NCCS(=O)(=O)N2CCN(c3ccccc3)CC2)cc1`, the activation is inactive: -7.53%.
The result for `Cc1nc(N2CCOCC2)c2c(C(=O)Nc3cccc(C(F)(F)F)c3)c(C)oc2n1` reads inactive: -5.82%.
In the case of `Cc1ccc(Cc2nc3ccccc3nc2SCC(=O)Nc2ccc3c(c2)OCO3)cc1`, the activation was inactive: -9.19%.
The result for `CC(=O)c1ccc(NC(=O)CCSc2nc(-c3ccco3)cc(C(F)(F)F)n2)cc1` reads inactive: 7.78%; that for `Cc1c(S(=O)(=O)c2cccc(Cl)c2)nnn1-c1cccc(C(F)(F)F)c1`, inactive: -11.3%.
`Cc1ccc(-n2ncc(C(=O)NCc3ccccc3C)c2-n2cccc2)cc1`: the activation was inactive: -6.6%.
On to `O=C(NCc1ccc2c(c1)CCN2C(=O)c1ccc(F)cc1)c1cc2ccccc2[nH]1`, for which the activation is inactive: -15.6%.
Turning to `COc1ccc(-c2[nH]c3ccccc3c2SCCNC(=O)c2cc(OC)c(OC)c(OC)c2)cc1`, the activation was inactive: -18.7%.
The result for `COc1ccccc1CNC(=O)CCC(=O)N1CC2CCCN2c2ccccc21` (stereo unspecified) reads inactive: 6.67%.
The result for `O=C(Cc1ccc(Cl)cc1)Nc1ccc2nn(-c3ccc(Cl)cc3)nc2c1` reads inactive: -6.27%; that for `Cc1cccc(C)c1OCCn1c(C2CC(=O)N(c3cccc(Cl)c3)C2)nc2ccccc21` (stereo unspecified), inactive: -6.04%; that for `COc1cccc(NC(=O)C2CCCN(S(=O)(=O)c3c(C)nn(C)c3C)C2)c1` (stereo unspecified), inactive: 11.1%.
The result for `COc1ccc(SCc2cc(=O)c3cc(Cl)ccc3[nH]2)cc1` reads inactive: 22.8%; that for `c1ccc(CNc2nc3c(-c4ccccc4)nnn3c3ccccc23)cc1`, inactive: 6.26%.
For `CCOc1ccc(OCC)c(NS(=O)(=O)c2cc(-c3cc(C)no3)ccc2C)c1`, the activation was inactive: -20.5%.
In the case of `Cc1ccc(CNC(=O)c2ccc(Cn3c(=O)c4ccccc4n(CC(=O)Nc4ccc(C)cc4C)c3=O)cc2)cc1`, the activation was inactive: -8.07%.
The result for `CCc1ccccc1N1C(=O)N(Cc2ccc(C#N)cc2)c2ccccc2S1(=O)=O` reads inactive: -15.1%.
In the case of `CC(C)Sc1oc(-c2cccs2)nc1S(=O)(=O)c1ccc(Cl)cc1`, the activation was inactive: -30.5%.
For `NC(N)=NC(N)=NCCc1ccccc1`, the activation was inactive: -22.7%.
The result for `CCn1c2ccccc2c2cc(CN3CCN(Cc4ccccc4F)CC3)ccc21` reads inactive: -31.5%; that for `CCOc1ccc(CCNC(=O)c2cn(CC)c3ccc(S(=O)(=O)N4CCc5ccccc5C4)cc3c2=O)cc1OCC`, inactive: -10.1%.
The result for `CCOc1ccc(S(=O)(=O)NCCc2sc3nc(-c4ccc(F)cc4)nn3c2C)cc1` reads inactive: -11%; that for `CCc1ccc(NCc2cc3cc4c(cc3n(CC(=O)Nc3ccc(C)cc3)c2=O)OCO4)cc1`, inactive: -34.5%.
Regarding `CCC(=O)Oc1ccc(/C=C(\C#N)c2nc3ccccc3[nH]2)cc1OC`, the activation was inactive: 31%.
The result for `COc1ccc(-c2cc(C(F)(F)F)nc(S(=O)(=O)CCCC(=O)Nc3cccc(O)c3)n2)cc1OC` reads inactive: -17.5%; that for `CCOc1ccccc1NC(=O)C(=O)NCCc1sc(-c2cccc(F)c2)nc1C`, inactive: -4.47%; that for `Cc1oc2ncnc(N3CCCCC3)c2c1C(=O)N1CCN(c2cccc(C(F)(F)F)c2)CC1`, inactive: 27.9%.
On to `CCOc1ccc(NC(=O)NCc2c(-n3cccc3)sc3c2CCCC3)cc1`, for which the activation is inactive: 5.39%.
As to `CCOc1ccc(NC(=O)C2CCCN(S(=O)(=O)c3cccc4nonc34)C2)cc1` (stereo unspecified), the activation is inactive: 21.4%.
The result for `Cc1ccc(Nc2c(-c3cccs3)nc3nc(C)cc(C)n23)cc1` reads inactive: -23.2%; that for `CC(=O)c1ccc(NC(=O)CSc2nnc3ccc(-c4ccc(Cl)cc4)nn23)cc1`, inactive: -2.73%.
As for `COc1ccc(Cl)cc1C(=O)Nc1sc2c(c1C(=O)OC(C)C)CCCC2`, the activation is inactive: 9.22%.
The result for `O=C(C1CC1)N1CCc2cc(Br)cc(S(=O)(=O)N3CCN(c4cccc(C(F)(F)F)c4)CC3)c21` reads inactive: -0.137%.
The result for `CCCCOc1ccc(-c2nn(-c3ccccc3)cc2C2NC(=O)NC(C)=C2C(=O)OC)cc1` (stereo unspecified) reads inactive: -16.7%; that for `COc1ccccc1CNC(=O)C1CCCN(c2nc3ccccc3n3cccc23)C1` (stereo unspecified), inactive: -22.9%; that for `CCCCN(C)c1nc2c(S(=O)(=O)c3ccc(CC)cc3)nnn2c2ccc(Cl)cc12`, inactive: -10.3%.
The result for `COc1ccccc1NC(=O)C1=C(C)Nc2c(C(=O)Nc3ccc(F)cc3)cnn2C1c1cccc([N+](=O)[O-])c1` (stereo unspecified) reads inactive: -18.6%; that for `COc1ccc(NC(=O)Cn2c(=O)n(-c3ccc(OC)c(OC)c3)c(=O)c3ccccc32)cc1`, inactive: -0.224%.
Regarding `COc1cc(C(CC(=O)NCc2ccc(F)cc2)N2Cc3ccccc3C2=O)cc(OC)c1OC` (stereo unspecified), the activation was inactive: 11.9%.
The result for `CC(=O)N1CCc2cc(Br)cc(S(=O)(=O)N3CCN(c4cccc(C(F)(F)F)c4)CC3)c21` reads inactive: 2.87%.
The result for `COc1ccc(C(F)(F)F)cc1NC(=O)c1sc2nc(-c3cccs3)ccc2c1N` reads inactive: -6.33%; that for `CC(=O)c1ccc(N2CCN(c3ncnc4c3c(-c3ccccc3)cn4-c3cccc(C)c3)CC2)cc1`, inactive: -23.2%; that for `Cc1noc(/C=C/c2cccs2)c1S(=O)(=O)N1CCC(C(=O)Nc2ccc(F)c(Cl)c2)CC1`, inactive: -24.4%.
The result for `COC(=O)c1ccccc1NC(=O)c1ccc(COc2ccccc2Cl)o1` reads inactive: 4.45%; that for `COc1ccc(C2CC(=O)c3cc(-c4nc(-c5cccc(Cl)c5)cs4)c(=O)[nH]c3C2)cc1OC` (stereo unspecified), inactive: 3.02%; that for `CCOc1ccc(NC(=O)c2ccc(NC(=O)N3CCSc4ncccc43)cc2)cc1`, inactive: 1.35%.
Regarding `Cc1cccc(N2CCN(c3ncnc4c3nc3n4CCCCC3)CC2)c1C`, the activation is inactive: 19.1%.
As to `CCOC(=O)c1ccc(NC(=O)c2c(-c3c(F)cccc3Cl)noc2C)cc1`, the activation is inactive: -11.7%.
In the case of `CCC(=O)N1CCc2cc(Br)cc(S(=O)(=O)N3CCC(C(=O)NCCCOC(C)C)CC3)c21`, the activation was inactive: -13.5%.
The result for `Nc1c(-c2nc(-c3cccs3)no2)nnn1-c1ccc(Cl)cc1` reads inactive: 1.78%; that for `COc1cccc(C(=O)Nc2cccc(C(=O)OCc3cc(=O)n4nc(C5CC5)sc4n3)c2)c1`, inactive: -11.8%.
